Experimental data as given in PubChem BioAssay AID1347165 (National Center for Advancing Translational Sciences (NCATS), 2019).
The whole screen tested about 220,000 compounds, of which about 5,700 (2.6%) were called active. Inconclusive results, whose numbers are uncertain, are shown with a selection of clear calls. The call rests on the fitted dose curve; in most records, active means well fitted inhibition curve with a large enough effect; inconclusive means small, poorly fitted or top-dose-only effect; inactive means no such curve, though single readings can be large or run the other way. A potency beside an inconclusive call is a rough fit, not a confirmed value.

The molecules below were run against Lysine-specific demethylase 5B (Homo sapiens) (UniProt Q9UGL1) (assay: Primary screen for KDM5B Histone Demethylases FDH-coupled qHTS). Settings: FDH-coupled NADH fluorescence (FDH is formaldehyde dehydrogenase); series mostly up to 57.7 µM.
UniProt Q9UGL1, sequence (Q9UGL1 whole entry, looked up): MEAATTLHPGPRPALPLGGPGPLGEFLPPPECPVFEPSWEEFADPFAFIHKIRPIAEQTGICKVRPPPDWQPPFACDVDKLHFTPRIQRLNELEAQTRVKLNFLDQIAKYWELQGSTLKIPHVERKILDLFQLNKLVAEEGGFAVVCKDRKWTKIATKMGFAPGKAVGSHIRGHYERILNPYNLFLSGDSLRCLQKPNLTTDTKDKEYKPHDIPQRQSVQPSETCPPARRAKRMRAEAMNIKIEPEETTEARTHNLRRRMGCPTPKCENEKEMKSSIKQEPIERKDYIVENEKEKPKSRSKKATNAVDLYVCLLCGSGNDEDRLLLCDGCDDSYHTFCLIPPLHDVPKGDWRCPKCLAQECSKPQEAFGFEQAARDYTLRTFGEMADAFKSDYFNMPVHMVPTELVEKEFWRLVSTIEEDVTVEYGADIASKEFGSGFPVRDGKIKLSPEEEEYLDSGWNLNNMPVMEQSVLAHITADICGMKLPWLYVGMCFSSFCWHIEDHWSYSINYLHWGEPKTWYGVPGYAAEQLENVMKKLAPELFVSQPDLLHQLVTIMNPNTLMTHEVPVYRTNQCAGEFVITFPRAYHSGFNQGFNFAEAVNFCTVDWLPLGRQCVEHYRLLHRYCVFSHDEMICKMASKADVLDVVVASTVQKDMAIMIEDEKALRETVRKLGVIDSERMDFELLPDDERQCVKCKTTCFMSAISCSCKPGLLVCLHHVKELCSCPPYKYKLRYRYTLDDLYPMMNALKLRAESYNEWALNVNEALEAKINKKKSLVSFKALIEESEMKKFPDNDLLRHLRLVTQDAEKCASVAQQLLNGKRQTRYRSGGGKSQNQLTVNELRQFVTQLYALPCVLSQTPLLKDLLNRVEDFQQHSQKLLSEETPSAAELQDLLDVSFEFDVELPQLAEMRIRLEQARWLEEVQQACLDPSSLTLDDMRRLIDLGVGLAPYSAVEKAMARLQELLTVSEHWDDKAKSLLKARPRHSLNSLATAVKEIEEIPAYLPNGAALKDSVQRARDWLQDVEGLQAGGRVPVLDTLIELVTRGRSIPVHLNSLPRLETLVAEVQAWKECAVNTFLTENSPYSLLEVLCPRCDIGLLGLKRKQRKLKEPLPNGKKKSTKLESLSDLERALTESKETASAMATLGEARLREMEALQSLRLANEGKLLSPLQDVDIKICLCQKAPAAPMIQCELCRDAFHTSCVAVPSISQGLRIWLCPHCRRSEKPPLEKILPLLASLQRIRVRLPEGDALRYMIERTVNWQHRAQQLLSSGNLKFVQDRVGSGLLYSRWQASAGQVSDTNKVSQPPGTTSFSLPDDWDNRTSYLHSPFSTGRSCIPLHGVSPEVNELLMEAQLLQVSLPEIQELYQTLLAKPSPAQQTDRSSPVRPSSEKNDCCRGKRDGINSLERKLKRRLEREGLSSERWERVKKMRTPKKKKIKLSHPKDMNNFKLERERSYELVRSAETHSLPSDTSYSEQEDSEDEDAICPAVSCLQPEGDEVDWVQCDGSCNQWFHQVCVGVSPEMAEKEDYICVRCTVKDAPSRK
Summary of the method: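 KDM5BΔAP (200 nM final) in 50 mM HEPES pH 7.5, 0.01% Tween-20 was preincubated 10 min at RT with compound over a concentration range. Substrate mix (H3K4me3 12.5 µM, α-KG 25 µM, Fe²⁺, ascorbate, NAD⁺, FDH) was added, and NADH fluorescence change over 30 min gave dose-response curves.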
Further: nearly all actives have a fitted effect of over 70% in size.
Potency means the concentration at half of the fitted maximal effect; tags describe the fitted curve by direction and shape.

Row | SMILES | Potency
1 | CC(C)CCn1c(/C=C/c2ccccc2)nc2ccccc21 | inconclusive: 25.1 µM [inhibitor, partial curve, poor fit]
2 | COc1ccccc1-n1ccnc1SCC(=O)Nc1nc(C)cs1 | inactive
3 | CCc1ccccc1-n1nnc(-c2nsc(NC(=O)c3ccc(C)c(C)c3)n2)c1C | inconclusive: 28.2 µM [inhibitor, single point]
4 | Cc1c(CC(=O)O)c(=O)oc2c(C)c(OCc3nn[nH]n3)ccc12 | inconclusive: 28.2 µM [inhibitor, partial curve, poor fit]
5 | CCc1ccc(C2=CC(c3c(F)cccc3Cl)n3c(nc4ccccc43)N2)cc1 (centres undefined) | inconclusive: 28.2 µM [inhibitor, partial curve, poor fit]
6 | CN(C)c1cccc(C(=O)N2CCC(n3cc(-c4nc(-c5ccccc5)no4)nn3)CC2)c1 | inconclusive: 25.1 µM [inhibitor, partial curve, poor fit]
7 | Cc1ccc(CN2CCCOCCNC(=O)[C@@H]3CCCC[C@@H]32)s1 | inconclusive: 22.4 µM [inhibitor, partial curve, poor fit]
8 | Cc1cc(/C=N/NC(=O)C(O)(c2ccccc2)c2ccccc2)c(C)n1-c1cccc(C(=O)O)c1 | inconclusive: 25.1 µM [inhibitor, single point]
9 | CN(C)CCNC(=O)Cc1c[nH]c2ncc(-c3ccccc3)cc12 | active: 35.5 µM
10 | CC1(CCCCc2ccccc2)COc2ccc(C(=O)NCc3cnccn3)cc2N1 (centres undefined) | inactive
11 | Nc1nn(-c2ccccc2)nc1C(=O)OCc1ccccc1 | inconclusive: 35.5 µM [inhibitor, partial curve, poor fit]
12 | CC1CCCN(CCCNC(=O)Cn2ncc3c([nH]c4ccccc43)c2=O)C1 (centres undefined) | inconclusive: 35.5 µM [inhibitor, single point]
13 | CCCCn1c(=O)nc2n(-c3ccc(Br)cc3)c3ccccc3cc-2c1=O | inconclusive: 12.6 µM [inhibitor, partial curve, poor fit]
14 | O=C(Cc1c(Cl)cccc1Cl)N1CCN(c2ccccc2O)CC1 | inactive
15 | COc1ccc(C(=O)NC2CCN(c3cc(-c4cccs4)[nH]n3)C2)c(C)c1 (centres undefined) | active: 14.1 µM
16 | CCOc1cc(C(=O)NC2CCN(c3cc(-c4ccc(F)cc4)[nH]n3)C2)cc(OCC)c1OCC (centres undefined) | inconclusive: 17.8 µM [inhibitor, partial curve, poor fit]
17 | O=C(NC(c1ccc(F)cc1)c1cccs1)C1CCN(Cc2ccncc2)CC1 (centres undefined) | inactive
18 | O=S1(=O)c2c(cccc2N2CCSCC2)Oc2ccccc2CN1Cc1cn(Cc2ccc(Cl)cc2)nn1 | inconclusive: 25.1 µM [inhibitor, partial curve, poor fit]
19 | CN(C)[C@@H]1C[C@H](Cn2cc(C3CC3)nn2)[C@@H](O)[C@H]1O | inconclusive: 35.5 µM [inhibitor, single point]
20 | COCCn1c(SCC(=O)c2ccc3c(c2)CCC3)nnc1-c1ccc(Cl)cc1 | inactive
21 | CCNc1ncnc2sc3c(c12)CCN(Cc1ccncc1)C3 | active: 25.1 µM
22 | CN(C)C[C@@H]1CN(c2ncccn2)C[C@H]1NC(=O)COc1ccc(F)cc1 | inconclusive: 31.6 µM [inhibitor, partial curve, poor fit]

Row | SMILES | Potency
23 | CNC(=O)c1cccc(-c2cnc(Nc3ccc(N4CCOCC4)cc3)c3c2CCO3)c1 | inconclusive: 31.6 µM [inhibitor, single point]
24 | CCN(CC)C(=O)COc1ccc2c(C)cc(=O)oc2c1 | inconclusive: 22.4 µM [inhibitor, partial curve, poor fit]
25 | CC(=O)Nc1ccc(SC2CCCCC2=O)cc1 (centres undefined) | inconclusive: 25.1 µM [inhibitor, single point]
26 | COc1cc(/C=C/c2nc(C#N)c(NCc3ccc4c(c3)OCO4)o2)cc(OC)c1OC | inconclusive: 17.8 µM [inhibitor, partial curve, poor fit]
27 | CCCn1cc(-c2ccnc(NC3CCN(Cc4cccnc4)CC3)n2)c(C)n1 | active: 31.6 µM
28 | C/C(=C\C(=O)c1ccc(Br)cc1)NNC(=O)c1ccccc1 | inconclusive: 39.8 µM [inhibitor, single point]
29 | COc1ccccc1C(=O)Nc1ccc2c(c1)CN(Cc1ccc(F)cc1)C(=O)C(C)O2 (centres undefined) | inconclusive: 39.8 µM [inhibitor, single point]
30 | COCC1CN(S(=O)(=O)c2cccc3cccnc23)CC12CCNCC2 (centres undefined) | inconclusive: 22.4 µM [inhibitor, partial curve, poor fit]
31 | Cc1ccc(-n2c(COCC(=O)O)nc3cccnc32)cc1 | inconclusive: 31.6 µM [inhibitor, single point]
32 | Cc1ccc(S(=O)(=O)C(CC(=O)c2ccc(Cl)cc2)C(=O)c2ccc(Cl)cc2)cc1 (centres undefined) | inactive
33 | COc1ccc(-c2cc(C(=O)N(C)CCc3ccc(OC)c(OC)c3)c3ccccc3n2)cc1 | inconclusive: 25.1 µM [inhibitor, partial curve, poor fit]
34 | Cc1ccc(CN2CCC(Oc3ccc4ncccc4c3)(C(=O)O)CC2)o1 | inconclusive: 31.6 µM [inhibitor, partial curve, poor fit]
35 | Cn1cc(Cl)c(/C=C(\C#N)S(=O)(=O)c2ccccc2)n1 | inconclusive: 28.2 µM [inhibitor, partial curve, poor fit]
36 | Cc1ccc(CN(C)C(=O)CC(c2ccccc2)c2ccc3c(c2)OCO3)o1 (centres undefined) | inconclusive: 31.6 µM [inhibitor, partial curve, poor fit]
37 | COc1cccc(NC(=O)NC[C@@H]2C=C(C)[C@H](CC(=O)N3CCN(c4ccccn4)CC3)C[C@H]2C(C)C)c1 | active: 31.6 µM
38 | CCCCN(CC)CCNC(=O)c1cc2c(=O)n(CC)c3ccccc3c2s1 | inconclusive: 2.24 µM [inhibitor, full curve, poor fit]
39 | CCCCCCCCCC(=O)Nc1c(C)cc(C)cc1C | inactive
40 | C/C(=N\O)c1cc2cc(Br)cc(Br)c2oc1=O | inconclusive: 22.4 µM [inhibitor, partial curve, poor fit]
41 | Cc1cc(C)c2c(=O)cc(C(=O)N(Cc3ccco3)C3CCS(=O)(=O)C3)oc2c1 (centres undefined) | inactive
42 | CCCCNc1nc2ccccc2c2nc(-c3ccccc3)nn12 | inconclusive: 6.31 µM [inhibitor, partial curve, poor fit]
43 | Cn1nnnc1C1CCCN(C(=O)CCc2ccccc2)C1 (centres undefined) | inconclusive: 31.6 µM [inhibitor, partial curve, poor fit]
44 | COc1ccc(C)cc1Nc1nc(N)c(C(=O)c2cccc(Br)c2)s1 | inactive

Row | SMILES | Potency
45 | CCN(CC)c1cc(CCC(=O)N2CCN(c3cccc(OC)c3)CC2)ccn1 | inconclusive: 20 µM [inhibitor, partial curve]
46 | CCOC(=O)c1ccccc1NC(=O)CN1C(=O)NC(c2ccc(Cl)cc2)C2=C1COC2=O (centres undefined) | inconclusive: 25.1 µM [inhibitor, partial curve, poor fit]
47 | CCOc1ccc(S(=O)(=O)N2CCCN(C)c3ccccc32)cc1 | inactive
48 | O=C(NCc1ccc(N2CCOCC2)cc1)c1cccnc1N1CC2CC(C1)[C@H]1CCCC(=O)N1C2 (some centres undefined) | inconclusive: 15.8 µM [inhibitor, partial curve]
49 | O=C(Nc1ccc(NC(=O)c2cccs2)cc1)c1ccccc1 | inconclusive: 25.1 µM [inhibitor, partial curve, poor fit]
50 | CN(C)C[C@@H]1CN(c2ncccn2)C[C@H]1NC(=O)Cc1cccc(Cl)c1 | inconclusive: 28.2 µM [inhibitor, partial curve, poor fit]
51 | CCOc1ccc(NC(=O)c2oc3ccccc3c2NC(=O)c2ccc(OC)cc2OC)cc1 | inconclusive: 15.8 µM [inhibitor, partial curve, poor fit]
52 | CC1(COCC2CC2)COc2ccc(C(=O)N3CCOCC3c3cccc(F)c3)cc2N1 (centres undefined) | active: 35.5 µM
53 | Cn1cccc1CN1CCC2(CC1)CN(Cc1ccccc1)CC2CO (centres undefined) | inconclusive: 39.8 µM [inhibitor, partial curve, poor fit]
54 | CS(=O)(=O)c1ccc(-c2csc(-c3cccnc3)n2)cc1 | inconclusive: 39.8 µM [inhibitor, partial curve, poor fit]
55 | N#Cc1cccnc1NCCCNc1ncccc1C#N | inconclusive: 25.1 µM [inhibitor, partial curve, poor fit]
56 | CC(=O)c1c(C(C)=O)c(C)n(-c2ccc(I)cc2)c1C | inactive
57 | CS(=O)(=O)Cc1ccc(-c2cccc(OCc3ccccc3F)c2)nc1 | inconclusive: 15.8 µM [inhibitor, partial curve, poor fit]
58 | O=C(Nc1ccccn1)c1cc(-c2ccco2)nc2ccccc12 | inconclusive: 35.5 µM [inhibitor, partial curve, poor fit]
59 | Cc1[nH]c(=O)[nH]c(=O)c1S(=O)(=O)Nc1ccccc1Cl | inactive
60 | COc1ccc(-c2ccc3ncc(Nc4cc(F)ccc4OC)n3n2)cn1 | inactive
61 | NC(=O)COC(=O)c1cc(-c2ccco2)nc2ccccc12 | inconclusive: 28.2 µM [inhibitor, partial curve, poor fit]
62 | CCN1c2cc(C(=O)Nc3ccc(OC(F)(F)F)cc3)ccc2C(=O)N2CCCC21 (centres undefined) | inconclusive: 14.1 µM [inhibitor, partial curve, poor fit]
63 | COC(=O)c1sc2ccccc2c1S(=O)(=O)N1CCN(c2cc(Cl)ccc2C)CC1 | inactive
64 | COc1ccc(C[N+]2=C(N)NC3=C(C)Cn4c(=O)n(-c5ccccc5)c(=O)n4C3C2)c(OC)c1 (centres undefined) | inconclusive: 15.8 µM [inhibitor, partial curve, poor fit]
